The results in this text go back to PubChem BioAssay (NCATS).

As usually defined, the IC50 is the midpoint of a concentration-inhibition curve.

Some of the results follow. These are further read-outs of the screen, such as a control signal, another cell line or another target. No call is given for them. The list favours compounds with an active or inconclusive main result. The note in brackets gives the kind of curve behind each potency; many fits are weak.
Tags tell the direction and shape of the fitted curve.

For the first assay, the target named is Catechol O-methyltransferase (Homo sapiens) (UniProt P21964). Description: Confirmatory Screen for Target Class Profiling of Small Molecule Inhibitors of Methyltransferases (AID 1745852).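 Also: inhibitor potency for blocking SAH production.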 Conditions: MTase-Glo luminescence, SAH detection, recombinant enzyme; measured here: COMT inhibition potency.
Chain of UniProt P21964 (P21964 whole entry, looked up): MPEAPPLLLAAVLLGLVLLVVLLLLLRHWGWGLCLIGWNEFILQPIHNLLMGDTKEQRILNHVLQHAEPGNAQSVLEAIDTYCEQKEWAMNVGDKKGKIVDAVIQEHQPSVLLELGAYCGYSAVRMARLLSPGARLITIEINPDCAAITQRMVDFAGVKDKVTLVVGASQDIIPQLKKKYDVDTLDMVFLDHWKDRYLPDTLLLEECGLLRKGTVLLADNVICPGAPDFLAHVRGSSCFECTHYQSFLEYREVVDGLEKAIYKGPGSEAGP
As to `CCCN(CCC)CCc1ccc(O)c(O)c1`, the concentration for half-maximal inhibition (IC50) is 7.69 µM [rising, partial curve].

On to `Cc1[nH]nc2ccc(-c3cncc(OC[C@@H](N)Cc4c[nH]c5ccccc45)c3)cc12`, for which the IC50 is 24.1 µM [falling, partial curve].

For the compound `CN1CCc2cc(O)cc3c2[C@H]1Cc1ccc(O)c(O)c1-3`, the half-inhibitory concentration (IC50) is 2.43 µM [falling, full curve].

`C[C@H]1CCCC(=O)CCC/C=C/c2cc(O)cc(O)c2C(=O)O1`: the IC50 was 12.1 µM [falling, partial curve].

As to `C=C(CO)C(=O)O[C@H]1CC(=C)[C@@H]2C[C@H](O)C(=C)[C@@H]2[C@H]2OC(=O)C(=C)[C@@H]21`, the half-inhibitory concentration (IC50) was 5.95 µM [falling, partial curve].

A further assay has as its target Histamine N-methyltransferase (Homo sapiens) (UniProt P50135). The assay is described as above. The conditions noted are these: MTase-Glo luminescence, SAH detection, recombinant enzyme; measured here: HNMT inhibition potency.
Chain of UniProt P50135 (P50135 whole entry, looked up): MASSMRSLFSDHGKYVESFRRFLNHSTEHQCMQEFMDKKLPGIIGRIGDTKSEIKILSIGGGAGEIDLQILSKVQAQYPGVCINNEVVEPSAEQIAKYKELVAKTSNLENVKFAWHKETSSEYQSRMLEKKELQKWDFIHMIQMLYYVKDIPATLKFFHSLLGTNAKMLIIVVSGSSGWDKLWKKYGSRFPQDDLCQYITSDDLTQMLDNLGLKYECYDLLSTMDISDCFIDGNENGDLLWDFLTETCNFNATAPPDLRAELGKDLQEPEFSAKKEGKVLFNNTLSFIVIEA
`C[C@@H]1[C@@H]2Cc3ccc(O)cc3[C@@]1(C)CCN2CC1CC1`: the IC50 is 21.7 µM [falling, partial curve, poor fit].

Regarding `CN(CCc1ccccn1)C[C@H]1CN2CC[C@H]1C[C@@H]2CNC(=O)Nc1ccsc1`, the half-maximal inhibitory concentration (IC50) is 31.2 µM [falling, partial curve].

As for `N#Cc1cn([C@@H]2O[C@H](CO)[C@H](O)[C@@H]2O)c2ncnc(N)c12`, the 50% inhibitory concentration (IC50) was 34.1 µM [falling, single point].

As for `CC1Oc2cc3c(-c4c(O)cc(O)c5c(O)c6c(cc45)OC(C)C(C)C6=O)c(O)cc(O)c3c(O)c2C(=O)C1C` (stereo unspecified), the IC50 was 15.2 µM [falling, partial curve].

As for `Oc1ccc2c(c1)C13CCCC[C@H]1[C@@H](C2)N(CC1CCC1)CC3`, the IC50 is 21.5 µM [falling, partial curve].

As for `C[C@H]1CCC[C@H](O)CCC/C=C/c2cc(O)cc(O)c2C(=O)O1`, the IC50 is 1.92 µM [falling, full curve].

Regarding `CC(=O)NC[C@H]1C[C@@H]2CCN1C[C@@H]2c1cc(-c2ccc3ccccc3c2)nn1C`, the IC50 is 12.4 µM [falling, partial curve].

In the case of `CC(C)OC(=O)c1ccnc2cc(C(OCCN3CCCCC3)c3ccccc3Cl)sc12` (stereo unspecified), the half-inhibitory concentration (IC50) was 24.3 µM [falling, partial curve, poor fit].

Consider `C=C[C@H]1CN2CC[C@H]1C[C@@H]2CNC(=O)Nc1ccc(Br)cc1`, for which the half-maximal inhibitory concentration (IC50) is 31.2 µM [falling, partial curve].

`Cc1[nH]nc2ccc(-c3cncc(OC[C@@H](N)Cc4c[nH]c5ccccc45)c3)cc12`: the concentration for half-maximal inhibition (IC50) was 15.2 µM [falling, partial curve].

For the compound `C[C@H]1CCCC(=O)CCC/C=C/c2cc(O)cc(O)c2C(=O)O1`, the 50% inhibitory concentration (IC50) is 10.8 µM [falling, partial curve].

A further assay deals with Nicotinamide N-methyltransferase (Homo sapiens) (UniProt P40261). Described as above. The conditions noted are these: MTase-Glo luminescence, SAH detection, recombinant enzyme; measured here: NNMT inhibition potency.
Chain of UniProt P40261 (P40261 whole entry, looked up): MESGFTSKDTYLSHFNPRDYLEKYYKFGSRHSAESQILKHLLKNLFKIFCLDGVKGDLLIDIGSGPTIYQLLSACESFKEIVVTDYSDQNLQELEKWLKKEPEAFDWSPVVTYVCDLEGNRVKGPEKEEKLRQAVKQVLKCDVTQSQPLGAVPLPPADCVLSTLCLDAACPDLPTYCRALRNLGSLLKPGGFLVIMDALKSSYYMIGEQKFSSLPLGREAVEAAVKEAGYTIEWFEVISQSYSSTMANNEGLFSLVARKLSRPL
`N#Cc1cn([C@@H]2O[C@H](CO)[C@H](O)[C@@H]2O)c2ncnc(N)c12`: the half-inhibitory concentration (IC50) is 34.1 µM [falling, single point].

With `C[C@H]1CCC[C@H](O)CCC/C=C/c2cc(O)cc(O)c2C(=O)O1`, the IC50 is 3.83 µM [falling, full curve].

On to `Cc1[nH]nc2ccc(-c3cncc(OC[C@@H](N)Cc4c[nH]c5ccccc45)c3)cc12`, for which the IC50 is 21.5 µM [falling, partial curve].

Consider `C[C@H]1CCCC(=O)CCC/C=C/c2cc(O)cc(O)c2C(=O)O1`, for which the half-inhibitory concentration (IC50) is 19.2 µM [falling, partial curve].

The target in a further assay is Phenylethanolamine N-methyltransferase (Homo sapiens) (UniProt P11086). The description is as above. Conditions: MTase-Glo luminescence, SAH detection, recombinant enzyme; measured here: PNMT inhibition potency.
Chain of UniProt P11086 (P11086 whole entry, looked up): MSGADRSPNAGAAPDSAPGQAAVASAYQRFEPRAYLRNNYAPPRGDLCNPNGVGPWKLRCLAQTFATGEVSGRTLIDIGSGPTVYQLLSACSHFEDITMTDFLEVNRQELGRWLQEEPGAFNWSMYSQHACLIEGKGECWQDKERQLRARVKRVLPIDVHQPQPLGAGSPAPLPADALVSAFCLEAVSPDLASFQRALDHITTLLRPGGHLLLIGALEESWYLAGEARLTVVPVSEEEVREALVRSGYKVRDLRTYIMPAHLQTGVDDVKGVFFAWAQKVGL
With `N#Cc1cn([C@@H]2O[C@H](CO)[C@H](O)[C@@H]2O)c2ncnc(N)c12`, the 50% inhibitory concentration (IC50) was 42.9 µM [falling, single point].

Regarding `CC1Oc2cc3c(-c4c(O)cc(O)c5c(O)c6c(cc45)OC(C)C(C)C6=O)c(O)cc(O)c3c(O)c2C(=O)C1C` (stereo unspecified), the IC50 is 21.5 µM [falling, partial curve].

Regarding `C[C@H]1CCC[C@H](O)CCC/C=C/c2cc(O)cc(O)c2C(=O)O1`, the IC50 was 3.04 µM [falling, full curve].

With `NCC(O)c1cc(O)c(O)cc1F` (stereo unspecified), the IC50 is 3.43 µM [rising, full curve].

For the compound `Cc1[nH]nc2ccc(-c3cncc(OC[C@@H](N)Cc4c[nH]c5ccccc45)c3)cc12`, the IC50 is 19.2 µM [falling, partial curve].

For `C[C@H]1CCCC(=O)CCC/C=C/c2cc(O)cc(O)c2C(=O)O1`, the IC50 is 13.6 µM [falling, partial curve].
